# Measurements: the BET-seq Pho4 binding data (Le et al. 2018)
# This is one part of the list. The energies were worked out here from pooled read counts, against the library average; single values are noisy.
# Target: T1, Pho4 (S. cerevisiae) (UniProt P07270)
# T1 sequence: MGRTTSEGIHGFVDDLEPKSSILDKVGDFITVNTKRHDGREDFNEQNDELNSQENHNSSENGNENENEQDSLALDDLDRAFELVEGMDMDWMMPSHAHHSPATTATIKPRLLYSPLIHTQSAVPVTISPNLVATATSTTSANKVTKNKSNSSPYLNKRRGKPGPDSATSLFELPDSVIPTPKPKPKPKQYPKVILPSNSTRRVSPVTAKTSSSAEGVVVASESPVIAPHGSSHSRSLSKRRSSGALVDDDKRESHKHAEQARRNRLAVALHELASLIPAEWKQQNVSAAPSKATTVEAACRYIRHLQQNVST
# Experiment: relative binding free energy (BET-seq); higher = weaker binding
# Details: reference: library average
row,Sequence,relative binding free energy [kcal/mol]
1,GTTTACACGTGTTGTC,0.1
2,GAACTCACGTGTGTTT,0.35
3,ATTGACACGTGAAGTT,0.28
4,AGTGTCACGTGAAGTG,0.22
5,GTTGGCACGTGGCGCG,-0.14
6,GGATGCACGTGTCTTT,-0.02
7,GGTTACACGTGGGTAT,0.04
8,GATATCACGTGTATAT,0.23
9,GAGGTCACGTGTTGCT,0.19
10,AAAGGCACGTGTTGGG,-0.06
11,TTTTTCACGTGTGTTC,0.41
12,GGCAGCACGTGGAGAG,0.03
13,GTGGCCACGTGGATGA,-0.07
14,TGGCTCACGTGTCGGA,0.27
15,TAGTACACGTGTTGGT,0.05
16,CATTGCACGTGGGTGA,-0.2
17,GCATTCACGTGTGTGG,0.25
18,TGGTGCACGTGATTAT,0.12
19,CGATTCACGTGGGGAG,0.04
20,GCTAACACGTGGGGTA,-0.16
21,AGAGGCACGTGCTTAG,-0.18
22,GACGTCACGTGGGTAT,0.05
23,GGGTTCACGTGACTGT,0.29
24,TTTGACACGTGAAGTC,0.25
25,TCAGGCACGTGTGATG,0.06
26,ATGGCCACGTGTGTGG,-0.01

row,Sequence,relative binding free energy [kcal/mol]
1,CTTAGCACGTGGGGGC,-0.29
2,AAGGTCACGTGGTGGT,0.07
3,ATGGGCACGTGTCGAG,-0.15
4,GGAGTCACGTGTTTGA,0.2
5,TGTGCCACGTGAGCGT,-0.06
6,AGTCTCACGTGCGTGT,0.04
7,CATTTCACGTGGGGTG,0.14
8,TATATCACGTGCTGTG,0.05
9,TCTTTCACGTGTGCTG,0.24
10,CGAGGCACGTGAGGTA,0.21
11,AATTGCACGTGTTGCG,-0.04
12,GATAGCACGTGTTGGT,-0.04
13,GGGGTCACGTGATTGC,0.39
14,TATGTCACGTGTTCCT,0.18
15,TTAATCACGTGTCTGT,0.06
16,TGGGGCACGTGTCTAT,-0.09
17,ATGAGCACGTGTGTTA,-0.06
18,CAAATCACGTGTTGGT,0.06
19,AGTAACACGTGGGGAA,-0.1
20,TCGATCACGTGGGGGG,-0.01
21,TCGAACACGTGTGTGG,0.13
22,CTTGACACGTGATGTG,0.14
23,GAGTTCACGTGTAGAT,0.38
24,TGTCCCACGTGTGGGG,-0.1
25,TTTTACACGTGCGTGC,0.13
26,AAAGGCACGTGTAGAT,0.15

row,Sequence,relative binding free energy [kcal/mol]
1,ATTGTCACGTGCGGGT,0
2,AGGCGCACGTGGAGAT,-0.02
3,TCGGTCACGTGGGATT,-0.12
4,TTATGCACGTGGACTT,0.08
5,AGGTGCACGTGGGGCG,-0.15
6,ATTAGCACGTGTAAAT,0.02
7,TTGGGCACGTGTACGG,-0.11
8,CGTGGCACGTGGGGGG,-0.2
9,CAGGGCACGTGTACTG,0.04
10,CGTTACACGTGTTGAT,0.03
11,CTTTGCACGTGAGCTT,0.16
12,TGAGACACGTGTGGAG,0.17
13,AGTTACACGTGAGTGA,0.31
14,GTTATCACGTGAGATG,0.27
15,TCGACCACGTGTGGGT,-0.05
16,GCTATCACGTGTAGGG,0.05
17,CTATTCACGTGGTTGG,0.25
18,GTGTGCACGTGGGTAG,-0.18
19,GGGCTCACGTGGATTG,0.19
20,GTTTTCACGTGCTCTG,0.25
21,GTTTGCACGTGATGAG,0.26
22,TTTTGCACGTGGCATT,-0.15
23,TTCTGCACGTGTCGGA,0.07
24,TGAGTCACGTGTTCAT,0.11
25,AAATGCACGTGACGGG,0.03
26,TTTAGCACGTGATTCG,-0.04

row,Sequence,relative binding free energy [kcal/mol]
1,CGTTGCACGTGGTTTG,-0.04
2,GGTAGCACGTGTTCAT,0
3,TCTAGCACGTGGAAGT,0.09
4,TTGATCACGTGTTGTT,0.19
5,TTTTACACGTGGTCCG,0.05
6,GTGTGCACGTGTTCTA,-0.07
7,GGAAGCACGTGTTTAG,-0.04
8,ATATCCACGTGGGGTA,-0.16
9,ATAATCACGTGTGGGT,0.16
10,GGCTTCACGTGTAATT,0.52
11,TATTGCACGTGGGGTA,-0.1
12,TTTGGCACGTGCGTTC,-0.14
13,GGATTCACGTGCAAGG,0.33
14,AATTTCACGTGGTATG,0.17
15,AGTGACACGTGATATT,0.3
16,GGGCGCACGTGGACGG,-0.13
17,TGTTGCACGTGCTGAA,-0.08
18,AGGGACACGTGAGATA,0.24
19,CGGGGCACGTGTCGGC,0
20,ACATGCACGTGATGTT,0.03
21,CTGGGCACGTGGCTGT,-0.18
22,AAGAACACGTGGGTAG,0.09
23,ATGATCACGTGTGCTG,0.13
24,CTGGGCACGTGAGAAG,0.22
25,TCGCACACGTGGGTGT,-0.11
26,GGTGGCACGTGACAGG,0.09

row,Sequence,relative binding free energy [kcal/mol]
1,GTAAACACGTGTGGGG,0.05
2,CGTATCACGTGGGGCT,-0.2
3,AGTATCACGTGGGCCT,0.01
4,GGGTTCACGTGCTCGT,0.27
5,AGGTGCACGTGTCCGG,0.1
6,AGAGTCACGTGTAGGG,0.19
7,GTTGTCACGTGATATG,0.26
8,TTTTGCACGTGTACGC,0.05
9,TGAGGCACGTGAATTT,0.24
10,GGGAACACGTGTGGGT,0.16
11,ATGTTCACGTGGCGGG,0.13
12,TATGTCACGTGGGTGT,-0.04
13,GTGAGCACGTGTTAGA,-0.06
14,TCAGGCACGTGGTCGG,-0.25
15,GTTTACACGTGGGCCT,0.09
16,TTCGGCACGTGGTAGC,-0.07
17,ATATACACGTGGCATG,-0.05
18,GAGGACACGTGGGTTG,0.01
19,TAGTACACGTGGGTCT,-0.04
20,GAATTCACGTGGATTT,0.4
21,TTGGGCACGTGGATGT,-0.05
22,TAGGTCACGTGTTTCG,0.17
23,GCTTTCACGTGGGGGA,0.02
24,GTAGTCACGTGAAAGA,0.4
25,GGTTTCACGTGGCCGG,0.38
26,TCTTGCACGTGATGGT,0.09

row,Sequence,relative binding free energy [kcal/mol]
1,ATTTTCACGTGACGGT,0.41
2,TGTATCACGTGACGGT,0.21
3,AGTGGCACGTGAGCAA,0.06
4,ATTGTCACGTGTGGCA,0.15
5,CTTGGCACGTGATGTG,-0.04
6,GGATACACGTGAGTGT,0.27
7,TAATACACGTGTGTTG,0.05
8,TAATGCACGTGTTAAT,-0.06
9,CTGTGCACGTGGATTG,0.06
10,TTTTCCACGTGGATAT,0.26
11,CAGTGCACGTGGGGCT,-0.27
12,AATTTCACGTGTATTG,0.23
13,CGATTCACGTGAGGTG,0.27
14,AGGGGCACGTGGCATA,-0.31
15,TATCGCACGTGTATGT,0.03
16,CTGGTCACGTGAGTGA,0.38
17,TATATCACGTGTGATT,0.23
18,AGCTTCACGTGGGTAG,0.18
19,ATTTGCACGTGAATGA,0.22
20,TAGTTCACGTGGTGGC,0.31
21,TGTGGCACGTGCAGTT,-0.11
22,GAGGCCACGTGTAAGG,0.19
23,AAATGCACGTGAGTGT,0.2
24,AATTGCACGTGAACGG,0.26
25,TTCTGCACGTGTTCTT,0.09
26,AGATGCACGTGTCTTT,-0.03

row,Sequence,relative binding free energy [kcal/mol]
1,TGAAACACGTGTCTGT,0.13
2,TGAATCACGTGCTTTA,0.13
3,TAGTACACGTGGTGAT,0.03
4,TGGGTCACGTGTGTTC,0.17
5,GTTGTCACGTGTGCTA,0.13
6,GCGGGCACGTGGTGTG,-0.16
7,AATGTCACGTGGGGAA,0.02
8,GGGATCACGTGCTTTT,0.26
9,TATGGCACGTGGCGGG,-0.23
10,GTTTCCACGTGGGTGC,-0.07
11,ATGGGCACGTGGGCAA,-0.07
12,GTGCGCACGTGTTGGC,0.04
13,TGCTTCACGTGGTCAG,0.06
14,GGTGGCACGTGCCGTT,-0.08
15,ATTGGCACGTGTGGCG,0.04
16,TAGTTCACGTGATAGT,0.28
17,AGCTTCACGTGGTGGC,0.3
18,TCTTTCACGTGGGTGA,0.31
19,CTTGGCACGTGTACGT,-0.05
20,AAGTTCACGTGGTTGG,0.22
21,TTATTCACGTGATGAG,0.29
22,TAAAGCACGTGGAATG,0
23,ATTGTCACGTGTTGAC,-0.04
24,TGGGACACGTGTGCGA,-0.05
25,TTAGGCACGTGAGTCA,0
26,ATGTTCACGTGTGAGT,0.24

row,Sequence,relative binding free energy [kcal/mol]
1,ATTGTCACGTGTACTT,0.09
2,AAAGGCACGTGTAGTG,-0.12
3,TGTGGCACGTGTATTC,0.04
4,GGAGACACGTGGGTGT,-0.04
5,CGGGTCACGTGCTGGG,0.12
6,AACGGCACGTGTCGGG,-0.03
7,TTGCTCACGTGGATTT,0.19
8,ATCCGCACGTGGGGTA,-0.11
9,GGTCGCACGTGAGGTC,0.21
10,ATATGCACGTGGTAGG,-0.16
11,GGCAGCACGTGGGTTC,-0.05
12,GTGTGCACGTGCCAGG,-0.07
13,TTTTACACGTGGTGAT,0.08
14,TTATGCACGTGATGAG,0.02
15,AAGGGCACGTGTGGAT,-0.12
16,GGTGGCACGTGGATAC,-0.1
17,TGGTTCACGTGTTTTC,0.35
18,TGAAACACGTGCTGGT,-0.01
19,TTAAGCACGTGATTGA,0.12
20,TTGTTCACGTGTGAGT,0.33
21,AGGTACACGTGATATG,0.08
22,GGTAACACGTGAGTAT,0.24
23,TAGTGCACGTGCAGTG,-0.14
24,GGGAGCACGTGATTTG,0.13
25,ATATGCACGTGAGCTT,0.05
26,GGGAGCACGTGCGGTA,-0.14

row,Sequence,relative binding free energy [kcal/mol]
1,CTTGTCACGTGAGGTG,0.27
2,CTTCGCACGTGTTGTT,-0.11
3,GTTTACACGTGTCGAT,0.21
4,CGTTACACGTGTATGT,0.06
5,TTAGTCACGTGTAATA,0.11
6,TTCGGCACGTGATTAT,-0.2
7,TCAATCACGTGATTTT,0.3
8,CATTACACGTGGGATT,0.14
9,ATTGTCACGTGTGCAT,0.13
10,GCGGGCACGTGGCGGG,-0.14
11,TTACACACGTGTATTT,-0.05
12,AGTTTCACGTGGTTGA,0.12
13,TTATTCACGTGTGTTG,0.31
14,AGGGGCACGTGATAAG,-0.04
15,GGTTCCACGTGCTTGG,0.17
16,TTGAGCACGTGGCAGT,-0.16
17,AGTAGCACGTGGGCAA,-0.17
18,GTATTCACGTGGTTCG,0.24
19,AGCGACACGTGTGAGT,0.1
20,TAGGACACGTGGGTCA,-0.13
21,GGTTGCACGTGGAAGA,0.12
22,GCTACCACGTGGGGGG,-0.23
